Our source for the relative growth values is the supplement of paper PMC9446081.

The structures appear in SMILES notation. Out of some 39,000 compounds screened, about 220 (0.56%) showed activity. Some of the results follow.
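Also: static incubation at 37 °C against the wild-type strain, values averaged over two biological replicates.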

For this experiment, the system named is Escherichia coli K-12 BW25113. In words: relative growth (OD600 normalised to plate interquartile mean) (fraction); higher = less growth inhibition, active = 0.2 or less. As to conditions: 50 µM; LB; incubation time: overnight (16-24 h).
For the compound `C[C@@H]1CN([C@H](C)CO)C(=O)c2cc(NC(=O)Nc3ccc4c(c3)OCO4)ccc2O[C@@H]1CN(C)Cc1ccc(-c2ccccc2)cc1`, the relative growth was inactive: 0.966. Then `C[C@@H]1CCCCO[C@@H](CN(C)C(=O)Cc2ccccc2)[C@@H](C)CN([C@H](C)CO)C(=O)c2cc(NC(=O)Nc3ccc(C(F)(F)F)cc3)ccc2O1`, with inactive: 1.04; and `CO[C@@H]1CN(C)C(=O)c2ccc(NC(=O)CC(F)(F)F)cc2OC[C@H](C)N(S(=O)(=O)c2cn(C)cn2)C[C@H]1C`, with inactive: 0.985.

`COc1ccc2c3c([nH]c2c1)[C@@H](CO)N(C[C@]13CCN(CC1)C(=O)Nc1c(noc1C)C)C(=O)Nc1ccc(cc1)F`: the relative growth is inactive: 1.01. Then `C[C@@H]1CCCCO[C@H](CN(C)S(=O)(=O)c2cccs2)[C@@H](C)CN([C@@H](C)CO)C(=O)c2cc(NC(=O)Cc3ccccc3)ccc2O1`, with inactive: 1.03; and `C[C@@H]1CN([C@@H](C)CO)C(=O)c2cc(NC(=O)Nc3cccc4ccccc34)ccc2O[C@H]1CN(C)C(=O)NC1CCCCC1`, with inactive: 1.02. With `CC(C)(N)c1nc(-c2ccc(OC(F)(F)F)cc2)c[nH]1`, the relative growth is inactive: 0.959. For `CO[C@H]1CN(C)C(=O)c2cc(NC(=O)c3ccc(F)cc3)ccc2OC[C@@H](C)N(C(=O)CN(C)C)C[C@@H]1C` the value was inactive: 0.982. For `C[C@@H]1CCCCO[C@@H](CN(C)Cc2ccc(C(=O)O)cc2)[C@H](C)CN([C@H](C)CO)C(=O)c2cc(NS(=O)(=O)c3ccccc3)ccc2O1`, the relative growth is inactive: 0.98. For `C[C@H]1CN([C@@H](C)CO)S(=O)(=O)c2ccc(-c3ccc(F)cc3)cc2O[C@H]1CN(C)S(C)(=O)=O` the value was inactive: 1.01; for `C[C@H](CO)N1C[C@H](C)[C@@H](CN(C)S(=O)(=O)c2cccs2)Oc2ccc(NC(=O)Nc3cccc4ccccc34)cc2CC1=O`, inactive: 1; for `CN1C(=O)c2cc(NC(=O)C3CCOCC3)ccc2OC[C@H]2O[C@@H](CC(=O)NCc3ccccc3F)CC[C@H]21`, inactive: 0.964. For `C[C@@H]1CCCCO[C@@H](CN(C)Cc2ccc(Cl)c(Cl)c2)[C@H](C)CN([C@H](C)CO)C(=O)c2cc(NC(=O)Cc3ccccc3)ccc2O1` the value was inactive: 0.922; for `C[C@@H]1CCCCO[C@H](CN(C)Cc2ccc3c(c2)OCO3)[C@@H](C)CN([C@@H](C)CO)C(=O)c2cc(NS(=O)(=O)c3ccc(F)cc3)ccc2O1`, inactive: 0.991; for `C[C@H](CO)N1C[C@H](C)[C@@H](CN(C)C(=O)CCCN(C)C)OCc2cnnn2CCCC1=O`, inactive: 0.967. For `C[C@@H]1CN([C@H](C)CO)C(=O)Cc2cc(NC(=O)Nc3ccc4c(c3)OCO4)ccc2O[C@@H]1CN(C)S(C)(=O)=O` the value was inactive: 1; for `C[C@@H]1CCCCO[C@@H](CN(C)Cc2ccccc2)[C@@H](C)CN([C@H](C)CO)C(=O)c2cc(NS(=O)(=O)c3ccc(F)cc3)ccc2O1`, inactive: 0.987. Turning to `O=C(C[C@@H]1C[C@H]2c3cc(NC(=O)Nc4ccc(C(F)(F)F)cc4)ccc3O[C@H]2[C@@H](CO)O1)NCc1cc(F)ccc1F`, the relative growth is inactive: 0.997. Then `O=C(C[C@@H]1CC[C@H]2[C@@H](COC[C@@H](O)CN2S(=O)(=O)c2ccc(Cl)cc2)O1)NCc1ccncn1`, with inactive: 1.01; and `C[C@@H]1CCCCO[C@H](CN(C)C(=O)c2ccccc2)[C@@H](C)CN([C@H](C)CO)C(=O)c2cc(NC(=O)NC3CCCCC3)ccc2O1`, with inactive: 0.991; and `CCc1c(C)c2cc3c(-c4ccccc4)coc3cc2oc1=O`, with inactive: 0.959.

Consider `Cc1noc(C)c1S(=O)(=O)N(C)C[C@@H]1Oc2ccc(NC(=O)c3ccncc3)cc2CC(=O)N([C@@H](C)CO)C[C@@H]1C`, for which the relative growth was inactive: 0.995. For `COc1ccc2c(c1)OC1COc3cc(OC)c(OC)cc3C1C2=O` (stereo unspecified) the value was inactive: 0.99; for `CO[C@H]1CN(C)C(=O)c2ccc(NS(=O)(=O)c3cn(C)cn3)cc2OC[C@@H](C)N(CCC(F)(F)F)C[C@H]1C`, inactive: 0.998. For the compound `C[C@@H]1CN([C@H](C)CO)C(=O)c2c(c3ccccc3n2C)-c2ccccc2CO[C@H]1CN(C)Cc1ccc(Cl)c(Cl)c1`, the relative growth is inactive: 1.01. Then `C[C@H]1CN([C@@H](C)CO)C(=O)c2cc(C#CCN(C)C)cnc2O[C@@H]1CN(C)C(=O)CCN1CCCCC1`, with inactive: 0.989; and `NCc1ccc(-n2cncn2)cc1`, with inactive: 1.02. With `C[C@H]1CN([C@@H](C)CO)C(=O)Cc2cc(NC(=O)NC3CCCCC3)ccc2O[C@H]1CN(C)C(=O)Nc1ccc(C(F)(F)F)cc1`, the relative growth is inactive: 0.99.

Turning to `C[C@H](CO)N1C[C@H](C)[C@@H](CN(C)C(=O)Nc2ccccc2)Oc2ccc(NC(=O)Cn3cnnn3)cc2CC1=O`, the relative growth was inactive: 0.989.

With `COCC#Cc1cnc2c(c1)C(=O)N([C@@H](C)CO)C[C@@H](C)[C@H](CN(C)C(=O)Nc1ccccc1OC)O2`, the relative growth was inactive: 1.04. For `C[n+]1ccccc1C=NO.[Cl-]` the value was inactive: 1.06; for `C[C@@H]1CN([C@@H](C)CO)C(=O)c2cc(NC(=O)Nc3ccc(C(F)(F)F)cc3)ccc2O[C@@H]1CN(C)S(=O)(=O)c1ccc(F)cc1`, inactive: 0.997; for `CO[C@@]1(CNC(=O)c2ccno2)CCSC1`, inactive: 1.02.

For the compound `C[C@@H]1CN([C@@H](C)CO)C(=O)c2cccc(NC(=O)NC3CCCCC3)c2O[C@@H]1CN(C)Cc1ccc(C(=O)Nc2ccccc2N)cc1`, the relative growth was inactive: 0.998. Then `C[C@H]1CN([C@@H](C)CO)C(=O)c2c(c3ccccc3n2C)-c2ccccc2CO[C@@H]1CN(C)C(=O)Nc1ccc(F)cc1`, with inactive: 1.01; and `C[C@H]1CN([C@@H](C)CO)C(=O)c2cc(NC(=O)Nc3cccc4ccccc34)ccc2O[C@@H]1CN(C)C(=O)Nc1ccccc1`, with inactive: 1.01; and `C[C@H]1CN([C@@H](C)CO)C(=O)Cc2cc(NS(=O)(=O)c3cn(C)cn3)ccc2O[C@H]1CN(C)CC1CC1`, with inactive: 0.99.

Turning to `C[C@H]1CN([C@@H](C)CO)C(=O)c2cc(C#CC3(O)CCCC3)cnc2O[C@H]1CN(C)C(=O)C1CCOCC1`, the relative growth is inactive: 0.999. Then `CCOc1ccc(Cc2nccc3cc(OCC)c(OCC)cc23)cc1OCC.Cl`, with inactive: 0.761.

On to `C[C@H](CO)N1C[C@H](C)[C@@H](CN(C)S(=O)(=O)c2ccc(F)cc2)Oc2c(NC(=O)C3CCOCC3)cccc2C1=O`, for which the relative growth was inactive: 0.996. In the case of `O=C(C[C@@H]1C[C@@H]2c3cc(NS(=O)(=O)c4ccc(F)cc4)ccc3O[C@@H]2[C@@H](CO)O1)NC1CCCCC1`, the relative growth was inactive: 1.02. For `C[C@H](CO)N1C[C@H](C)[C@H](CN(C)Cc2ccc(-c3ccccc3)cc2)Oc2ccc(NS(=O)(=O)c3cccs3)cc2C1=O`, the relative growth is inactive: 0.957. Then `C[C@@H]1CN([C@H](C)CO)C(=O)c2cccc(NS(=O)(=O)c3ccc(F)cc3)c2O[C@H]1CN(C)S(=O)(=O)c1ccccc1`, with inactive: 0.992; and `Cc1noc(C)c1NC(=O)Nc1ccc2c(c1)C(=O)N([C@H](C)CO)C[C@@H](C)[C@H](CN(C)Cc1ccc(Cl)c(Cl)c1)OCCCC[C@H](C)O2`, with inactive: 0.956. As to `C[C@@H]1CN([C@H](C)CO)C(=O)c2cccc(NC(=O)C3CCCCC3)c2O[C@H]1CN(C)Cc1ccc(C(F)(F)F)cc1`, the relative growth was inactive: 0.928. Then `C[C@@H]1CN([C@H](C)CO)C(=O)Cc2cc(NS(=O)(=O)c3cn(C)cn3)ccc2O[C@H]1CN(C)C(=O)Nc1ccc2c(c1)OCO2`, with inactive: 1.03; and `C[C@@H]1CN([C@@H](C)CO)C(=O)c2cccc(NC(=O)Nc3cccc4ccccc34)c2O[C@H]1CN(C)S(=O)(=O)c1cccs1`, with inactive: 1.02; and `COc1ccccc1CNC(=O)C[C@H]1C[C@@H]2c3cc(NC(=O)NC4CCCC4)ccc3O[C@@H]2[C@H](CO)O1`, with inactive: 0.957.

Regarding `COc1ccc(NC(=O)Nc2ccc3c(c2)C(=O)N([C@H](C)CO)C[C@H](C)[C@H](CN(C)C(=O)Nc2c(C)noc2C)OCCCC[C@H](C)O3)cc1`, the relative growth was inactive: 0.997. As to `C[C@@H]1CN([C@H](C)CO)C(=O)c2cc(NC(=O)CCC(F)(F)F)ccc2O[C@@H](C)CCCCO[C@H]1CN(C)C(=O)Nc1ccc(C(F)(F)F)cc1`, the relative growth is inactive: 1.02. Then `C[C@H](CO)N1C[C@H](C)[C@H](CN(C)Cc2ccccc2)Oc2cc(C#Cc3ccccn3)ccc2S1(=O)=O`, with inactive: 1.01. For `CCC(=O)Nc1nc2[nH]c(COC)cc(=O)n2n1` the value was inactive: 0.944. Then `C[C@@H]1CCCCO[C@H](CN(C)Cc2ccc3c(c2)OCO3)[C@@H](C)CN([C@H](C)CO)C(=O)c2cc(NC(=O)c3ccccc3)ccc2O1`, with inactive: 1.01; and `CCOC(=O)CCCCCC(=O)Nc1ccc2c(c1)C(=O)N([C@H](C)CO)C[C@@H](C)[C@@H](CN(C)C(=O)CCC(F)(F)F)OCCCC[C@H](C)O2`, with inactive: 0.998; and `C(=N\C1CCCCCCCCCCC1)/c1ccco1`, with inactive: 0.985.

For `N#Cc1ccc(O)cn1`, the relative growth was inactive: 1.03.

In the case of `CCc1cc(Nc2nccc(-c3c(-c4ccc(OC)c(C(=O)Nc5c(F)cccc5F)c4)nc4ccccn34)n2)c(OC)cc1N1CCC(N2CCN(S(C)(=O)=O)CC2)CC1`, the relative growth was inactive: 1.02. Then `Cl.NNc1nncc2ccccc12`, with inactive: 1.01. For `COc1cccc(S(=O)(=O)N2C[C@H](O)COC[C@@H]3O[C@@H](CC(=O)NCCCN4CCOCC4)CC[C@H]32)c1` the value was inactive: 1.02. As for `CO[C@@H](CN(C)C(=O)c1ccc2c(c1)OCO2)[C@@H](C)CN([C@@H](C)CO)S(=O)(=O)c1ccc(F)cc1`, the relative growth is inactive: 1.03.

On to `COc1ccc(CN(C)C[C@@H]2Oc3ccc(NC(=O)Nc4cccc5ccccc45)cc3CC(=O)N([C@@H](C)CO)C[C@@H]2C)cc1`, for which the relative growth is inactive: 0.982.
